Reference: PubChem BioAssay AID2675 (National Center for Advancing Translational Sciences (NCATS), 2010)
Screen size: about 280,000 compounds; about 100 (0.036%) were called active. The shares of active, inactive and inconclusive entries below differ from those in the screen. Calls follow the shape of the dose curve; as a rule, active = well fitted inhibition curve with a large enough effect in the signal ratio, with a control signal flat (not every such curve was filed as active); inconclusive = small, poorly fitted or top-dose-only effect, or effect the other way, or a change in a side signal; inactive = no such curve, though single readings can be large or run the other way; the % refers to the signal ratio. Where the call is inconclusive, the potency comes from a doubtful curve fit. A note “side channel” means that the fit belongs to a control or component signal, not to the main read-out.

What follows are molecules tested against Muscleblind-like protein 1 (Homo sapiens) (UniProt Q9NR56) (assay: qHTS Assay for Inhibitors of MBNL1-poly(CUG) RNA binding). Conditions: TR-FRET MBNL1-His/biotin-(CUG)12 binding, 665/545 ratio; activity change, negative = inhibition: at 57.5 µM (top of the series).
In short: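 Compound titration spanned 92 nM–58 uM against the MBNL1-His/biotin-(CUG)12 complex. After 60 min at room temperature with 5 nM streptavidin-XL665 and 0.055 ng/ul terbium anti-His, ratiometric 665/545 nm emission (Ex 340 nm) normalized to controls.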
% is scaled to controls: 0 for no effect and ±100 for the full control effect; potency is read from the fitted curve at half-maximal effect; tags tell the direction and shape of the fitted curve or compound fluorescence and quenching.

UniProt Q9NR56, sequence (Q9NR56 whole entry, looked up): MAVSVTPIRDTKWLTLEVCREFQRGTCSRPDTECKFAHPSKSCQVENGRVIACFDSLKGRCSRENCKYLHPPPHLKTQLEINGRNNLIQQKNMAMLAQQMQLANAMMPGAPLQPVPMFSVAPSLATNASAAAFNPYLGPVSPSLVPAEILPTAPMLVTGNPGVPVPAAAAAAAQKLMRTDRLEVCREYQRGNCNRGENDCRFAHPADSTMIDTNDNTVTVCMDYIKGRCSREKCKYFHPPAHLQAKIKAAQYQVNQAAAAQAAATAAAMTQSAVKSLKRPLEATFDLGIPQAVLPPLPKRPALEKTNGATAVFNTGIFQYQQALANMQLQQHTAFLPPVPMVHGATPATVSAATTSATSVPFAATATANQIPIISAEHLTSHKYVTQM

Row | Compound | activity change, negative = inhibition | Potency
1 | COCc1cc(=O)[nH]c(N2CCN(Cc3ccc4c(c3)OCO4)CC2)n1 | inactive: -11.1% | –
2 | COc1ccc(NC(=O)/C=C/c2ccc(OC(F)F)cc2)cn1 | inactive: 16.7% | –
3 | COc1ccc(OC)c(CNS(=O)(=O)c2c(C)nc3scc(C)n3c2=O)c1 | – | inconclusive: 31.6 µM [fluorescent, side channel, single point]
4 | CCNC(=O)COC(=O)c1ccc(-c2nc3ccccc3s2)s1 | – | inconclusive: 7.08 µM [quencher, side channel, partial curve]
5 | O=[N+]([O-])c1cccc(-c2nc(-c3cccs3)c(-c3cccs3)[nH]2)c1 | inactive: 0.678% | –
6 | Cc1cc(C)c2cc3c(N)c(C(=O)Nc4c(C)[nH]c(=O)[nH]c4=O)sc3nc2c1 | – | inconclusive: 14.1 µM [quencher, partial curve]
7 | O=C(Cc1ccccc1)Nc1nc(-c2cccc([N+](=O)[O-])c2)cs1 | – | inconclusive: 141 µM [fluorescent, side channel, partial curve]
8 | CCOc1ccccc1C(=O)Nc1ccc(S(=O)(=O)Nc2cc(OC)nc(OC)n2)cc1 | inactive: -1.3% | –
9 | O=C(N/N=C/c1ccco1)c1cccc(NC(=O)c2cccc(Cl)c2)c1 | – | inconclusive: 28.2 µM [quencher, side channel, single point]
10 | COC(=O)/C=C1\S/C(=N/N=C/c2ccco2)NC1=O | – | inconclusive: 17.8 µM [quencher, side channel, single point]
11 | Cc1cc([N+](=O)[O-])nn1Cn1nc([N+](=O)[O-])cc1C | – | inconclusive: 10 µM [quencher, side channel, partial curve]
12 | CCN1C(=C2C(=O)c3ccccc3C2=O)C=Cc2ccccc21 | – | inconclusive: 11.2 µM [quencher, side channel, partial curve]
13 | COc1ccccc1CN1C2CCCC1CC(NC(=O)/C=C/c1ccccc1)C2 (stereo not drawn) | – | inconclusive: 3.55 µM [quencher, side channel, full curve]
14 | COCCn1c(-c2ccccc2)cnc1N | inactive: 4.47% | –
15 | CCOC(=O)CSc1nc(-c2ccc(OC)cc2)ns1 | inactive: 2.16% | –
16 | CN1CCN(c2ccc([N+](=O)[O-])cc2NC(=O)c2cccs2)CC1 | – | inconclusive: 17.8 µM [quencher, side channel, partial curve]
17 | O=[N+]([O-])c1ccccc1S(=O)(=O)Nc1nc2ccccc2s1 | – | inconclusive: 17.8 µM [quencher, side channel, partial curve]
18 | CCN1CCN(c2nc3c(C)cccn3c(=O)c2/C=C(\C#N)C(=O)NCCCOC)CC1 | – | inconclusive: 15.8 µM [quencher, side channel, partial curve]
